Source: the supplement of paper PMC4967469

Compound: O=C1NC(=NCc2cccs2)S/C1=C\c1ccc2ncccc2c1 [RO-3306]
Experiment: Viability of human cancer cell lines after 72 h of drug (GDSC screen)
Settings: top dose 5 µM; top dose inferred
Experimental: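 Human cancer cell lines in 384-well plates, medium with 10% serum, drug for 72 h over a 256-fold dose range (nine 2-fold or five 4-fold steps up to the top dose). Adherent lines were fixed and stained with the nucleic acid dye Syto60, suspension lines read with resazurin; signal relative to control wells, capped at 0 and 100%. One two-parameter sigmoid per drug and line, fitted in a mixed model over all curves with the slope shared within a line.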

| Cell Line | AUC | IC50 |
| --- | --- | --- |
| GR-ST (lymphoblastic leukaemia, suspension) | 0.937 | > 5 µM |
| GRANTA-519 (B-cell lymphoma, suspension) | 0.988 | > 5 µM |
| GT3TKB (stomach, adherent) | 0.953 | > 5 µM |
| H4 (glioma, adherent) | 0.717 | 1.27 µM |
| H9 (lymphoid neoplasm, suspension) | 0.991 | > 5 µM |
| H290 (mesothelioma, adherent) | 0.984 | > 5 µM |
| H2369 (mesothelioma, adherent) | 0.911 | > 5 µM |
| H2373 (mesothelioma, adherent) | 0.959 | > 5 µM |
| H2461 (mesothelioma, adherent) | 0.945 | > 5 µM |
| H2591 (mesothelioma, adherent) | 0.977 | > 5 µM |
| H2595 (mesothelioma, adherent) | 0.823 | 4.65 µM |
| H2731 (mesothelioma, adherent) | 0.896 | > 5 µM |
| H2795 (mesothelioma, adherent) | 0.969 | > 5 µM |
| H2869 (mesothelioma, adherent) | 0.967 | > 5 µM |
| H3118 (head and neck, adherent) | 0.794 | 2.54 µM |
| H3255 (lung adenocarcinoma, adherent) | 0.97 | > 5 µM |
| H-EMC-SS (chondrosarcoma, adherent) | 0.841 | > 5 µM |
| HA7-RCC (kidney, adherent) | 0.936 | > 5 µM |
| HAL-01 (lymphoblastic leukaemia, suspension) | 0.958 | > 5 µM |
| HARA (lung squamous cell carcinoma, adherent) | 0.954 | > 5 µM |

| Cell Line | AUC | IC50 |
| --- | --- | --- |
| HC-1 (hairy cell leukaemia, suspension) | 0.974 | > 5 µM |
| HCC38 (breast, adherent) | 0.943 | > 5 µM |
| HCC202 (breast, adherent) | 0.98 | > 5 µM |
| HCC1143 (breast, adherent) | 0.978 | > 5 µM |
| HCC1187 (breast, suspension) | 0.985 | > 5 µM |
| HCC1395 (breast, adherent) | 0.901 | > 5 µM |
| HCC1419 (breast, adherent) | 0.922 | > 5 µM |
| HCC1428 (breast, adherent) | 0.934 | > 5 µM |
| HCC1500 (breast, adherent) | 0.988 | > 5 µM |
| HCC1569 (breast, adherent) | 0.97 | > 5 µM |
| HCC1806 (breast, adherent) | 0.972 | > 5 µM |
| HCC1937 (breast, adherent) | 0.965 | > 5 µM |
| HCC1954 (breast, adherent) | 0.954 | > 5 µM |
| HCC2157 (breast, suspension) | 0.977 | > 5 µM |
| HCC2218 (breast, suspension) | 0.982 | > 5 µM |
| HCC-15 (lung squamous cell carcinoma, adherent) | 0.857 | > 5 µM |
| HCC-44 (lung adenocarcinoma, adherent) | 0.973 | > 5 µM |
| HCC-56 (large intestine, adherent) | 0.983 | > 5 µM |
| HCC-78 (lung adenocarcinoma, adherent) | 0.966 | > 5 µM |

A lower IC50 marks a more sensitive line; a limit (>, <) means that the fit lies beyond the doses tested. For AUC the same curve is integrated over the 256-fold range of doses and scaled to a fraction: 1 means no effect, lower means more sensitive. The top dose, if marked as inferred, was calculated from the reported fits.
